From PubChem BioAssay AID1159614 (National Center for Advancing Translational Sciences (NCATS), 2016)
About 65 (0.1%) of roughly 45,000 compounds were called active. Calls come from the whole dose curve; as a rule, active = well fitted activation curve with a large enough effect; inconclusive = small, poorly fitted or top-dose-only effect; inactive = no such curve, though single readings can be large or run the other way. This is one part of the list.

The molecules below were run against Galactocerebrosidase (Homo sapiens) (UniProt P54803) (assay: A Novel Cell-Based Assay to Identify Small Molecules for B -Galactocerebrosidase). Settings: 145M-Twi-hGALC-G270D cells (Twitcher mouse brain line with human GALC G270D), HMU-beta-Gal fluorescence, 48 h; series mostly up to 57.5 µM; activation: at the top concentration.
Chain of UniProt P54803 (P54803 whole entry, looked up): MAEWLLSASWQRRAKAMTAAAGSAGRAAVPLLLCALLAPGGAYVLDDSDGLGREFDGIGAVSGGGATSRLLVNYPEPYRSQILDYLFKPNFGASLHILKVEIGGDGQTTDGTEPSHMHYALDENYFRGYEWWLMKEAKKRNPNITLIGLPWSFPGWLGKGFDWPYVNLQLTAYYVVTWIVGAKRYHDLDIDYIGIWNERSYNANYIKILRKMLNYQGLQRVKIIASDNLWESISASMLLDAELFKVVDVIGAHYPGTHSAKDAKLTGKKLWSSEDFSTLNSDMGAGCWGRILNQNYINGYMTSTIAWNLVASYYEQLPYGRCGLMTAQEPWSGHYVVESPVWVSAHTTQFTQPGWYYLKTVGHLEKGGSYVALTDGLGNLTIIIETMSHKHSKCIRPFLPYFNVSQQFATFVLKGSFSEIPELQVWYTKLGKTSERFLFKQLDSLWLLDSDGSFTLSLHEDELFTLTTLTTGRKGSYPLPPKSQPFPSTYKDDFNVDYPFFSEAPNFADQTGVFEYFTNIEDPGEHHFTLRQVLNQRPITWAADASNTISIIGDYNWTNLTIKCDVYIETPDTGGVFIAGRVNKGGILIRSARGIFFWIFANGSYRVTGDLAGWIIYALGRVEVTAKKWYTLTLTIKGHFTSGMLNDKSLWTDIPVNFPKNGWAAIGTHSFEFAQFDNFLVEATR
How it was run: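 Fluorogenic HMU-b-Gal hydrolysis (0.1 mM final, pH 5.2 citrate-phosphate with 1 mg/mL sodium taurocholate; carbonate stop buffer) measures mutant GALC activity after compound treatment of live 145M-Twi Twitcher brain cells stably carrying human GALC-G270D, with wild-type GALC line alongside; activation sought.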
Note: 0% is about no effect; nearly all actives have a fitted effect of over 65% in size.

activation, inactive:
CN(C)c1ccc(CNC(=O)Cn2ccc3cc(S(=O)(=O)N4CCCCCC4)ccc32)cc1 -2.92%, O=C(Nc1nnc(S(=O)(=O)N2CCc3ccccc32)s1)c1ccccc1Cl -12.2%, CCOC(=O)c1c(C)[nH]c(CCC(=O)NCCCN2CCN(c3ccccc3F)CC2)c1C -22.1%, Cc1c2cnn(CC(=O)N3CCN(c4ccc(F)cc4)CC3)c(=O)c2c(C)n1Cc1ccccc1F -34.4%, COc1ccc(CNC(=O)C(=O)Nc2cc(Cl)ccc2OC)cc1 -8.02%, COc1cccc(CNC(=O)CCC(=O)N2CC(C)Sc3ccccc32)c1 (configuration not stated) -17.9%, Cc1ccccc1CN1C(=O)c2ccccc2S(=O)c2ccc(C(=O)NCc3ccc4c(c3)OCO4)cc21 (configuration not stated) -10.8%, CC(=O)Nc1cc(C(=O)Nc2ccc3c(c2)N(C)C(=O)c2ccccc2S3)ccc1C -10.3%, COc1ccc(N2CCN(S(=O)(=O)CCNC(=O)c3c(F)cccc3Cl)CC2)cc1 -14.6%, CCCN(CCC)C(=O)C1CCCN(c2ncnc3c2nc2n3CCCCC2)C1 (configuration not stated) -12.3%, Cc1ccccc1CNC(=O)c1ccc(CN2CC(=O)N3CCCCC3C2=O)cc1 (configuration not stated) -3.24%, CCc1nnc2c3ccccc3nc(N3CCN(c4cc(C)ccc4C)CC3)n12 -35.5%, CNCC[C@H](Oc1cccc2ccccc12)c1cccs1 -17.8%, Cc1nc2c(c(C)nn2C(C)(C)C)c(C)c1CCC(=O)Nc1ccc(Br)cc1Br -11.6%, Cc1ccc(NS(=O)(=O)c2c(C)nc3sc(C)cn3c2=O)c(C)c1 -9.55%, Cc1ccc(S(=O)(=O)c2nnn3c2nc(N2CCC(C(N)=O)CC2)c2cc(Cl)ccc23)cc1C -5.42%, CCC(=O)Nc1cc2nn(-c3ccc(C)cc3)nc2cc1C -16%, Cc1ccc(NC(=O)[C@@H](c2ccccc2)N2Cc3ccccc3C2=O)cc1F 1.26%, O=C(CCCN1CCC(O)(c2ccc(Br)cc2)CC1)c1ccc(F)cc1 -4.63%, Cc1c(C(=O)NCc2ccc(F)cc2)sc2nc(-c3ccc(F)cc3)cn12 -5.63%, CCOC(=O)Cn1c(=O)n(CC2CCCO2)c2nc(-c3ccc(CC)cc3)nc(C(N)=O)c21 (configuration not stated) -5.97%, O=C(CSc1ncc2c(n1)-c1ccc(Cl)cc1N(Cc1ccccc1)S2(=O)=O)Nc1ccccc1C(F)(F)F -16.3%, CCCCOc1ccccc1C1CC(=O)Nc2cc(OC)c(OC)cc21 (configuration not stated) -31.1%, CC(=O)Nc1c(C)nn(-c2ccccc2)c1N1CCC(C(=O)Nc2cccc(C(F)(F)F)c2)CC1 -9.72%, CCCc1nn2c(=O)cc(COC(=O)c3ccco3)nc2s1 -12%, COc1ccc(CCNC(=O)Cn2c(=O)c3cccn3c3ccccc32)cc1OC -14.6%, Cc1noc(Cn2c(=O)c3ccccc3n(CC(=O)Nc3ccc(C(C)C)cc3)c2=O)n1 -12.1%, Cc1cc(C)cc(N(CC(=O)NCc2ccccc2Cl)S(=O)(=O)c2c(C)[nH]c(=O)[nH]c2=O)c1 -18.6%, CCN(CC)c1cc2c(cc1F)c(=O)c(S(=O)(=O)c1ccccc1)cn2C 15.7%, COC(=O)c1c(NC(=O)/C=C/c2ccc(OC)c(OC)c2)sc2c1CCC2 -4.79%, CCOc1ccc(NC(=O)CN2CCSc3ccc(S(=O)(=O)N4CCCC4)cc32)cc1 -42.7%, CCn1cc(S(=O)(=O)c2ccc(C)cc2C)c(=O)c2cc(F)c(N3CCCCC3)cc21 -13.6%, CCc1cccc(NS(=O)(=O)c2cc(-c3cnc(C)o3)ccc2OC)c1 -6.97%, CCOC(=O)Cn1c(=O)n(CC2CCCO2)c2nc(-c3c(F)cccc3Cl)nc(C(N)=O)c21 (configuration not stated) -25.5%, C[N+]1(C)CCCC(OC(=O)C(O)(c2ccccc2)c2ccccc2)C1 (configuration not stated) -6.4%, CCc1ccccc1NS(=O)(=O)c1cc(Br)cc2c1N(C(=O)C1CC1)CC2 -7.77%, CCN(CC)CCCNC(=O)CN1C(=O)COc2ccc(S(=O)(=O)N3CCC(C)CC3)cc21 -9.49%, CC(Nc1oc(-c2ccc(COc3ccc(Cl)cc3)o2)nc1C#N)c1ccccc1 (configuration not stated) -13.1%, COCCNC(=O)CSc1nnc2[nH]c(=O)cc(C)n12 -9.66%, O=C(NCc1ccccc1)c1ccc2c(c1)nc1n2CCOC1 -8.74%, CCN(CC)c1ccc(NC(=O)CN2C(=O)c3cccnc3Oc3ccc(Cl)cc32)c(C)c1 -8.49%, N#C/C(=C1\SCC(c2ccccc2Cl)S1)n1ccnc1 (configuration not stated) -18.9%, CCn1c(=O)c2sccc2n2c(CCCC(=O)Nc3ccc(OC)c(OC)c3)nnc12 -7.38%, COc1ccc(C(=O)Nc2nc3n(n2)C(c2ccc(F)cc2)C=C(c2ccc(Cl)cc2)N3)cc1 (configuration not stated) -11.1%, CSc1ncc(Cl)c(C(=O)N(Cc2ccc(C(C)C)cc2)C2CCS(=O)(=O)C2)n1 (configuration not stated) -12.6%, Cc1ccccc1Cn1c(SCc2ccc(C(=O)NCCc3ccccc3)cc2)nc2ccncc21 -15.4%, Cc1cc(C)n(C(C)CC(=O)Nc2ccc(C)c(F)c2)n1 (configuration not stated) -22.8%, CCCCC1CCC(CCCC(C)CCC(=O)O)CC1 (configuration not stated) -15.8%, COc1ccc(-n2cc(-c3ccc4c(c3)OCO4)n(CC(=O)Nc3cccc(C)c3)c2=O)cc1 -19.7%, Cc1cccc(NC(=O)Cn2cc(S(=O)(=O)Cc3ccccc3Cl)c3ccccc32)c1 0.839%, O=C(CC1N=C2c3ccccc3N=C(SCC(=O)Nc3ccc(F)cc3)N2C1=O)NCc1ccc2c(c1)OCO2 (configuration not stated) -8.27%, COc1cccc(-c2n[nH]c3c2C(c2ccccn2)N(C)C3=O)c1 (configuration not stated) -11.5%, O=C(C1COc2ccccc2O1)N(Cc1cccnc1)c1nc2c(F)cc(F)cc2s1 (configuration not stated) -6.04%, Cc1ccc(C(=O)Nc2nnc(SCc3cc(=O)c4c(C)ccc(C)c4[nH]3)s2)cc1 3.43%, O=C(Nc1ccc2nn(-c3ccc(F)cc3)nc2c1)c1cccc2c(Cl)cccc12 -18.9%, COc1cccc(C(=O)N2CCC(c3nc4ccccc4s3)CC2)c1 -18.5%, CCOc1ccccc1NC(=O)c1ccc2c(c1)CCCN2S(C)(=O)=O -13.6%, COCCNc1cc(N2CCN(C3CCCCC3)CC2)c2noc3c2c1C(=O)c1ccccc1-3 -14.3%, Cc1cc(C)cc(OCC(=O)Nc2ccc(-c3nc4ncccc4o3)cc2C)c1 -3.29%, COC(=O)c1cccc(Nc2c(-c3cc(Br)ccc3O)nc3nc[nH]n23)c1 -11.9%, CCOc1ccccc1NC(=O)c1c(NCc2ccc(OC)c(OC)c2OC)sc2c1CCC(C)C2 (configuration not stated) 18.7%, CCc1nnc(SCc2nc(-c3ccccc3F)oc2C)c2cc3sccc3n12 -8.27%, Cc1ccc(Cl)cc1N1CCN(C(=O)c2c(C)oc3ncnc(N4CCOCC4)c23)CC1 -7.14%, O=C(CC1N=C2c3ccccc3N=C(SCc3cccc(Cl)c3)N2C1=O)NC1CCCCC1 (configuration not stated) -6.04%, CCCCCNC(=O)C1CCC(Cn2c(=O)c3sccc3n(CC(=O)N3CCCC3)c2=O)CC1 (configuration not stated) 9.61%, COc1cc(OC)c(NC(=O)c2nc(-c3ccncc3)no2)cc1Cl -13%, COc1ccc(NC(=O)CSc2nnc(-c3nnn(-c4ccc(F)cc4)c3C)o2)cc1 -23.4%, Cc1cccc(-c2noc(-c3ccc(NC4CCCC4)c([N+](=O)[O-])c3)n2)c1 -11.1%, Cc1ccc(OCC(=O)Nc2cccc(C(=O)OCc3cc(=O)n4cc(C)sc4n3)c2)cc1 -0.501%, Cc1ccc(Cl)cc1-n1c(=O)cc(N2CCN(c3ccccc3)CC2)[nH]c1=O -8.66%, Cc1cc2n(n1)CCCN2C(=O)Nc1ccccc1F 3.06%, CCOCN(C(=O)Cn1c(C)nc2ccccc21)c1c(C)cccc1CC -7.59%, Cn1c(=NC(=O)c2ccc(F)cc2)sc2cc(Br)ccc21 -16.2%, COc1cccc(C(=O)Nc2ccccc2-c2nc(-c3ccc(C)cc3)no2)c1 -8.89%, Cc1ccc(N2C(=O)c3n[nH]c(C)c3C2c2ccc(C(C)C)cc2)cc1 (configuration not stated) 0.402%, CCOC(=O)c1c(S(=O)(=O)N2CCN(c3ccccc3OC)CC2)c(C)n(C)c1C 2.19%, CCc1ccccc1NC(=O)CC(C)n1nc(C)cc1C (configuration not stated) -20.2%, CCCCCC[C@@H](CCC)C(=O)O -6.81%, COc1cc2c(cc1OC)C(=O)C(CC1CCN(Cc3ccccc3)CC1)C2 (configuration not stated) -4.62%, CCCCC(CC)CN1CN(CC(CC)CCCC)CC(C)(N)C1 (configuration not stated) -8.62%, O=c1c2cc3c(cc2n(Cc2cccc(F)c2)c(=O)n1Cc1nc(-c2ccccc2)no1)OCO3 4.45%, COc1cc(OC)c(NC(=O)NCc2ccc3c(c2)CCN3C(C)=O)cc1Cl -4.7%, CC(=O)c1cccc(NC(=O)c2sc3nc4c(cc3c2N)CCCC4)c1 -16.8%, c1ccc(N2CCN(c3ncnc4[nH]ncc34)CC2)cc1 -25.1%, Cc1cccn2c(=O)c(C(=O)NCCc3ccc(Cl)cc3)cnc12 -1.27%, CC(=O)c1ccc(NC(=O)C2CCC(CNS(=O)(=O)c3cccc4nsnc34)CC2)cc1 (configuration not stated) -29.2%, CCCNS(=O)(=O)c1cc(-c2nnc3c4ccccc4c(C)nn23)ccc1OC -14.8%, CC(C)(C)OC(=O)N1CCC(c2c(C(=O)N3CCN(C(=O)c4ccco4)CC3)cnn2-c2ccc(Cl)cc2)CC1 -16%, CCc1ccccc1N1C(=O)N(Cc2cccc(Cl)c2)c2ccccc2S1(=O)=O -3.73%, CCOc1ccc(NC(=O)C2CCCN(c3nnc(-n4c(C)ccc4C)s3)C2)cc1 (configuration not stated) -9.26%, Cc1ccc(Cl)cc1NC(=O)c1cccc(NC(=O)N2CCSc3ncccc32)c1 -30.9%, COCCN1C(=O)c2[nH]nc(-c3c(C)cc(C)cc3O)c2C1c1cccc(O)c1 (configuration not stated) 17.8%, CCc1ccc(NCc2cc3ccc(OC)cc3n(CC(=O)Nc3cccc(Cl)c3C)c2=O)cc1 -4.62%, Cc1ccc(-c2nnc(Nc3ccc(Br)cc3)c3ccccc23)cc1S(=O)(=O)NCc1nc2ccccc2[nH]1 -18.9%, Cc1ccc(C(=O)NCc2nnnn2-c2ccc(C)c(C)c2)cc1 6.25%, CCOc1ccc(NC(=O)CCS(=O)(=O)c2ccc3nc(C)sc3c2)cc1 6.86%, c1coc(-c2nc3ccccn3c2Nc2ccc3c(c2)OCCO3)c1 -27.8%
